Assay results: PubChem BioAssay AID588342 (National Center for Advancing Translational Sciences (NCATS), 2011)
Several values for one entry are separate records, joined by “and”; a condition that tells them apart may be missing. Equal values may be shown once. Among all 360,000 compounds or so, about 25,000 (6.9%) were called active. The shares of active, inactive and inconclusive entries below differ from those in the screen. The call rests on the fitted dose curve; in most records, active means well fitted inhibition curve with a large enough effect; inconclusive means small, poorly fitted or top-dose-only effect; inactive means flat fitted curve, though single readings scatter. Where the call is inconclusive, the potency comes from a doubtful curve fit.

Each molecule was assayed against Luciferin 4-monooxygenase (Photinus pyralis) (UniProt P08659) (assay: qHTS profiling assay for firefly luciferase inhibitor/activator using purifed enzyme and Km concentrations of substrates (counterscreen for miR-21 project)). Settings: purified FLuc, luminescence inhibition; series mostly up to 57.5 µM.
In short: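 Purified P. pyralis luciferase, 10 nM final, with Km-level 10 uM D-luciferin and 10 uM ATP in 50 mM Tris acetate pH 7.5, 10 mM Mg acetate, 0.01% Tween-20, 0.05% BSA; 6-point qHTS titration about 60 µM downward; luminescence read.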
Further: nearly all actives have a fitted effect of over 55% in size.
Potency means the concentration at half of the fitted maximal effect; tags describe the fitted curve by direction and shape.

Sequence of UniProt P08659 (P08659 whole entry, looked up): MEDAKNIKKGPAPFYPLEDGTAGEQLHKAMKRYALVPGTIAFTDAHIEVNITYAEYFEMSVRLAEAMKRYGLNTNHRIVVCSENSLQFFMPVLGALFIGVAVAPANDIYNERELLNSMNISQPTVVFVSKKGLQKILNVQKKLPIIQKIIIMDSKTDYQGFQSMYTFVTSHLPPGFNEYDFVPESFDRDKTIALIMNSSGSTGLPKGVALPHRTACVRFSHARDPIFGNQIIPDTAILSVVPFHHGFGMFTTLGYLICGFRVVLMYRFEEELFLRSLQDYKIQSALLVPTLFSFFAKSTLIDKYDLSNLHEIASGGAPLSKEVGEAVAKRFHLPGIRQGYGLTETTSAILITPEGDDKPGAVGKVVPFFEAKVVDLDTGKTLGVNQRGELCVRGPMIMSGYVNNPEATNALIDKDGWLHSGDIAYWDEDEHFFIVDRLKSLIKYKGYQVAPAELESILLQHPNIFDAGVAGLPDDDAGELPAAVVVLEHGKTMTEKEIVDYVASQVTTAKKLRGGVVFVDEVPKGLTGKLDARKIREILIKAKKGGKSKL

Structure (SMILES) | Potency
OCCOCCNc1ncnc2c1cnn2-c1ccccc1 | inconclusive: 30.1 µM [inhibitor, single point]
Cc1nc2ccccc2c2c(N)c3ccccc3n12 | inconclusive: 37.9 µM [inhibitor, single point]
O=C(O)c1ccc(NNC(=S)Nc2cc(C(F)(F)F)ccc2Cl)cc1 | active: 23.9 µM
CC(C)Nc1oc(-c2cccc3ccccc23)nc1C#N | active: 12 µM
CCN(CC)CCN1C(=O)C(=O)/C(=C(/O)c2ccc(S(=O)(=O)N3CCOCC3)cc2)C1c1ccc(C(C)(C)C)cc1 (stereo not drawn) | inactive
CC1CCN(S(=O)(=O)c2nnc(NC(=O)c3cccc([N+](=O)[O-])c3)s2)CC1 | inconclusive: 21.3 µM [inhibitor, partial curve, poor fit]
Cc1ccc(Cn2c(C(=O)O)c(CNC3CCCCCC3)c3ccc(C)cc32)cc1 | inactive
CCOC(=O)c1ccc(/[N+]([O-])=C/c2ccccc2)cc1 | inconclusive: 10.7 µM [inhibitor, single point]
COc1ccc(Cn2c(C(=O)O)c(CNCCc3cccs3)c3ccc(C)cc32)cc1 | inactive
Oc1[nH]c2ccccc2c1C1=NCCCCC1 | inconclusive: 37.9 µM [inhibitor, partial curve, poor fit]
COc1ccc(C(=O)OCC(=O)c2cc(OC)ccc2OC)c(OC)c1 | inconclusive: 37.9 µM [inhibitor, partial curve, poor fit]
NNc1nc(-c2ccccc2)cc(-c2ccc(Br)cc2)n1 | inconclusive: 26.9 µM [inhibitor, partial curve, poor fit]
CCN1CCN(c2ccc(NC(=O)c3ccc([N+](=O)[O-])o3)cc2Cl)CC1 | inconclusive: 37.9 µM [inhibitor, partial curve, poor fit]
Nc1ccc2oc(-c3ccccn3)nc2c1 | active: 19 µM
CCOC(=O)N1CCN(C(=O)CN2C(=O)COc3ccc(S(=O)(=O)N4CCOCC4)cc32)CC1 | inactive
O=C(NNC(=O)c1cccs1)c1ccc([N+](=O)[O-])cc1 | inconclusive: 23.9 µM [inhibitor, partial curve, poor fit]
CCOc1ccc(C2CC(=O)n3nc(C45CC6CC(CC(C6)C4)C5)nc3S2)cc1OC (stereo not drawn) | inactive
COCCNC(=O)c1sc2nc(-c3ccccc3)cn2c1C | inconclusive: 21.3 µM [inhibitor, single point]
CCn1c(=O)cc(SCC(=O)NCCc2ccc(Cl)cc2)c2ccccc21 | inconclusive: 30.1 µM [inhibitor, partial curve, poor fit]
O=[N+]([O-])c1ccc(N2CCN(CCOc3nonc3-c3ccccc3)CC2)c(Cl)c1 | inactive
O=C(CNC(=O)c1cn2ccccc2n1)Nc1ccc(F)c(F)c1 | active: 16.9 µM
COc1ccc(/C=C/C(=O)Nc2sc3c(c2C(N)=O)CCCC3)cc1 | inconclusive: 0.601 µM [inhibitor, partial curve, poor fit]
O=S(=O)(O)c1ccc(N=NNc2ccc(Br)cc2)cc1 | active: 9.53 µM

Structure (SMILES) | Potency
CCC(C)c1ccc(-c2cc(C(=O)OCC(=O)Nc3cc(C)on3)c3ccccc3n2)cc1 (stereo not drawn) | active: 2.69 µM
COCCNC(=O)[C@@]1(Cc2ccccc2)C=C[C@@H](C)N1C(C)=O | inconclusive: 21.3 µM [inhibitor, partial curve, poor fit]
COC(=O)Cc1ccc(NC(=S)NCc2ccccc2OC)cc1 | inconclusive: 12 µM [inhibitor, partial curve, poor fit]
Cc1cc(Cl)ccc1OCCCC(=O)Nc1ccc(S(=O)(=O)Nc2ncccn2)cc1 | inconclusive: 21.3 µM [inhibitor, single point]
Cc1ncsc1CCOC(=O)c1ccc(Cl)cc1 | inconclusive: 23.9 µM [inhibitor, single point]
S=c1cnc2ccccc2[nH]1 | inconclusive: 21.3 µM [inhibitor, partial curve, poor fit]
Nc1c(C(=O)OCC2CCCO2)c2nc3ccccc3nc2n1-c1ccc2c(c1)OCCO2 (stereo not drawn) | inconclusive: 23.9 µM [inhibitor, single point]
Cc1cc(C(=O)CSc2nnnn2-c2ccc(O)cc2)c(C)n1C | inconclusive: 19 µM [inhibitor, partial curve]
Cc1cc(C(=O)OCC(=O)c2cccs2)c2ccccc2n1 | inconclusive: 26.9 µM [inhibitor, single point]
O=C(c1ccc(-c2ccccc2)cc1)C1CCCN(Cc2ccncc2)C1 (stereo not drawn) | active: 7.57 µM
CCc1ccc2oc(C(=O)Nc3cccc(C(F)(F)F)c3)cc(=O)c2c1 | inactive
N/C(=N\OC(=O)CCC1CCCC1)c1ccncc1 | active: 13.5 µM
COc1ccc(-c2ccc(=O)n(CC(=O)Nc3ccc(C)cc3C)n2)cc1 | inactive
O=C1c2ccccc2C(=O)c2c1cccc2N1CCCC1 | inconclusive: 37.9 µM [inhibitor, single point]
Cc1oc2cc3oc(=O)c(CCC(=O)N(C)CC(=O)O)c(C)c3cc2c1C | active: 7.57 µM
Cc1ccc(-c2ccc(CCC(=O)O)n2-c2cccc(O)c2)cc1 | inconclusive: 37.9 µM [inhibitor, partial curve, poor fit] and inconclusive: 23.9 µM [inhibitor, partial curve]
Cn1c(C2=C(O)CN(Cc3ccccc3)C2=N)nc2ccccc21 | inconclusive: 37.9 µM [inhibitor, partial curve, poor fit]
O=c1[nH]nc(Cc2ccc3ccccc3n2)c2ccccc12 | inconclusive: 19 µM [inhibitor, partial curve]
Cc1ccc(CNC(=O)CCCCCn2c(=O)c3sccc3n(CC(=O)N(C)c3ccccc3)c2=O)cc1 | inconclusive: 10.7 µM [inhibitor, partial curve, poor fit]
Cc1ccc(C(=O)Nc2ccc3oc(-c4ccc(C(C)(C)C)cc4)nc3c2)cc1 | inconclusive: 4.78 µM [inhibitor, partial curve, poor fit]
Fc1cc(Br)ccc1NC(=S)NCCc1ccccc1 | inconclusive: 23.9 µM [inhibitor, single point]
Cc1ccc(C(=O)Nc2cccc(C(=O)N/N=C/c3ccccc3F)c2)cc1 | active: 5.36 µM
COc1cccc(NC(=O)c2ccccc2-c2nc(-c3ccccc3)no2)c1 | inconclusive: 21.3 µM [inhibitor, single point]

Structure (SMILES) | Potency
O=C(N/N=C/c1cccnc1)NC12CC3CC(CC(C3)C1)C2 | inconclusive: 26.9 µM [inhibitor, single point]
O=C(NNC(=S)NC1CCCCC1)c1ccc2c(c1)OCO2 | inconclusive: 9.53 µM [inhibitor, partial curve]
COc1ccccc1NC(=O)Nc1nc(CC(=O)NCc2ccc(F)cc2)cs1 | inconclusive: 12 µM [inhibitor, partial curve]
Fc1ccc(-n2cc(-c3ccccc3)[n+]3c2SCC3)cc1 | inactive
CNC(=O)c1cc(Nc2nnc(-c3ccc(O)cc3)c3ccccc23)ccc1OC | inconclusive: 42.6 µM [inhibitor, partial curve, poor fit]
O=C1CC(NS(=O)(=O)c2ccc3ccccc3c2)CN1c1ccccc1 (stereo not drawn) | inactive
Cc1ccc2nc(Cl)c(/C=N/n3c(C)nnc3C)cc2c1 | inconclusive: 37.9 µM [inhibitor, partial curve, poor fit]
C=CCNC(=O)C1CC(=O)N(c2ccc(OCc3ccccc3Cl)cc2)C1 (stereo not drawn) | inconclusive: 9.53 µM [inhibitor, partial curve]
CC(NC(=O)c1ccccc1NC(=O)c1nsc2ccccc12)c1ccccc1 (stereo not drawn) | inconclusive: 26.9 µM [inhibitor, partial curve]
Cc1ccc(CNC(=O)c2ccccc2NC(=O)CN2CC(C)OC(C)C2)cc1 (stereo not drawn) | inactive
C/C(=N\Nc1cccc(C(=O)O)c1)c1ccc2c(c1)Nc1ccccc1S2 | active: 7.57 µM
CCOC(=O)c1sc(NC(=O)c2cccc(S(=O)(=O)N(CC)CC)c2)cc1C | inconclusive: 13.5 µM [inhibitor, partial curve, poor fit]
O=C(O)c1ccc(-n2c(-c3ccc(Br)cc3)n[nH]c2=S)cc1 | inconclusive: 23.9 µM [inhibitor, partial curve, poor fit]
Cc1cccc(NC(=O)COC(=O)CC2CCCC2)c1C | inconclusive: 23.9 µM [inhibitor, partial curve, poor fit]
Cc1sc2nc3ccc(N4CCCC4)nn3c(=O)c2c1C | active: 12 µM
COC(=O)c1cc2ccccc2c(-c2c(O)ccc3ccccc23)c1O | inconclusive: 15.1 µM [inhibitor, partial curve, poor fit]
COc1ccc2[nH]c(=O)c(CNc3ccc(C)c(C)c3)cc2c1 | inconclusive: 19 µM [inhibitor, partial curve, poor fit]
Cc1cc(C(=O)CSc2nc3ccc(Cl)cc3[nH]2)c(C)n1CC1CCCO1 (stereo not drawn) | inconclusive: 33.8 µM [inhibitor, single point]
S=C(c1ccc(-c2ccccc2)o1)N1CCCCC1 | active: 2.69 µM
COc1cc(NC(=O)c2ccccc2)c(OC)cc1NC(=O)CN1CCCCC1 | inconclusive: 21.3 µM [inhibitor, partial curve]
COc1ccc(NC(=O)c2ccc(NS(=O)(=O)c3cccc4cccnc34)cc2)cc1 | inconclusive: 19 µM [inhibitor, single point]
Cn1cc(CCC(=O)N2CCCC(CCC(=O)NCc3ccc(F)c(F)c3)C2)cn1 (stereo not drawn) | inconclusive: 21.3 µM [inhibitor, partial curve, poor fit]
